From the supplement of paper PMC11876631 come the findings set out here.

Substitutions are numbered along the chain they refer to. Numbers in names are those of the source. ± gives the standard deviation of the averaged measurements. Laboratory Escherichia coli strains with one amino-acid change in an essential protein, pooled on minimal glucose agar with carbenicillin or gentamicin at twice the control MIC (plus kanamycin and chloramphenicol for the plasmids), 48 h. Fold change of barcode share against drug-free plates; higher = less susceptible. Active = above 20 in both replicates (the paper's putatively resistant). '<' = one read or none on drug, '>' = one read or none on a drug-free plate. Shares are relative, so most strains fall below 1 when a few take over. Listed are strains with at least 15 reads on both drug-free plates, and hits; most hits rest on fewer reference reads. Replicate rank correlation about 0.5. Edits are read from barcodes.

In the data set the target is Escherichia coli (laboratory strain). The data set is described as follows: barcode share on antibiotic plates over drug-free plates; higher = less susceptible. How it is done: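 A pool of E. coli strains, each edited to carry one amino-acid change in an essential protein, was grown for 48 h on minimal glucose agar with or without antibiotic; strain barcodes were sequenced; mean of two replicates.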

Setting [1] is: antibiotic: carbenicillin, 2× MIC (3.1 µg/mL).
[2] abbreviates: antibiotic: gentamicin, 2× MIC (MIC 0.45 µg/mL).

B1: ftsA V24Q (protein)
chain: MIKATDRKLVVGLEIGTAKVAALQGEVLPDGMVNIIGVGSCPSRGMDKGGVNDLESVVKCVQRAIDQAELMADCQISSVYLALSGKHISCQNEIGMVPISEEEVTQEDVENVVHTAKSVRVRDEHRVLHVIPQEYAIDYQEGIKNPVGLSGVRMQAKVHLITCHNDMAKNIVKAVERCGLKVDQLIFAGLASSYSVLTEDERELGVCVVDIGGGTMDIAVYTGGALRHTKVIPYAGNVVTSDIAYAFGTPPSDAEAIKVRHGCALGSIVGKDESVEVPSVGGRPPRSLQRQTLAEVIEPRYTELLNLVNEEILQLQEKLRQQGVKHHLAAGIVLTGGAAQIEGLAACAQRVFHTQVRIGAPLNITGLTDYAQEPYYSTAVGLLHYGKESHLNGEAEVEKRVTASVGSWIKRLNSWLRKEF
In the case of B1, the “fold change of barcode share” value is, setting by setting: under setting [1], 0.227 ± 0.056; under setting [2], below 0.00891.

B2: ftsA L54W (protein)
chain: B1 chain with Q24V, L54W
For the protein B2, the “fold change of barcode share” value reads like this: under setting [1], 0.344 ± 0.041; under setting [2], 0.0105 ± 0.004.

B3: ftsA V58Q (protein)
chain: B1 chain with Q24V, V58Q
For B3, the “fold change of barcode share” value under setting [1] was found to be 0.245 ± 0.058 and the “fold change of barcode share” value under setting [2] was 0.0877 ± 0.0098.

B4: ftsA L54Q (protein)
chain: B1 chain with Q24V, L54Q
Consider B4, for which the “fold change of barcode share” value reads like this: under setting [1], 0.393 ± 0.092; under setting [2], below 0.00667.

B5: ftsA L54P (protein)
chain: B1 chain with Q24V, L54P
With B5, the “fold change of barcode share” value was 0.931 ± 0.14 under setting [1] and 0.0053 ± 0.0026 under setting [2].

B6: ftsA L54A (protein)
chain: B1 chain with Q24V, L54A
On to B6, for which the “fold change of barcode share” value reads like this: under setting [1], 0.349 ± 0.0097; under setting [2], 0.00552 ± 0.0015.
